Experimental findings from patent publication US20230416360A1 (SIMCERE ZAIMING PHARMACEUTICAL, published 2023) are described below.

T1: murine CD22-ECD-His (mouse, UniProt P35329 22-708)
T1 construct: extracellular domain; Bought; also called mouse CD22; murine CD22 protein
T1 sequence (looked up): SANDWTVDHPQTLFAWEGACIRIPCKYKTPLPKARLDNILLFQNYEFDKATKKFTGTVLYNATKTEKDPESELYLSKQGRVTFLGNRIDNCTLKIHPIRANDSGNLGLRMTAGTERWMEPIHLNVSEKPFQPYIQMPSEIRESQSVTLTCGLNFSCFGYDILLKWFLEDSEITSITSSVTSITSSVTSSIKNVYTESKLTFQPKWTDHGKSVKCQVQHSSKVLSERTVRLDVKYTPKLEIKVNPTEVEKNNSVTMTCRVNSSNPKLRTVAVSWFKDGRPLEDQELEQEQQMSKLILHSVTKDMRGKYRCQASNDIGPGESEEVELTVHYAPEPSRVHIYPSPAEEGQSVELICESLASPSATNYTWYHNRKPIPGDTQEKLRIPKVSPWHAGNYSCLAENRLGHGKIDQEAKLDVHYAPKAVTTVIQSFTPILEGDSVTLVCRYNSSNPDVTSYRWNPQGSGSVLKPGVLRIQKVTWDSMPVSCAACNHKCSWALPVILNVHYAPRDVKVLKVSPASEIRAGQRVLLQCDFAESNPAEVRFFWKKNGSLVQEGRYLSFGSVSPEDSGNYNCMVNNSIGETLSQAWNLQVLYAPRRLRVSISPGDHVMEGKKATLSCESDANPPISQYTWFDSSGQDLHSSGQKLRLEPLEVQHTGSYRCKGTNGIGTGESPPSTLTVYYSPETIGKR

T2: human CD22-ECD-His (human, UniProt P20273 20-687)
T2 construct: Made in HEK293E, purified on nickel column; also called hCD22-ECD-His; recombinant human CD22-ECD His; not shown: His tag
T2 sequence: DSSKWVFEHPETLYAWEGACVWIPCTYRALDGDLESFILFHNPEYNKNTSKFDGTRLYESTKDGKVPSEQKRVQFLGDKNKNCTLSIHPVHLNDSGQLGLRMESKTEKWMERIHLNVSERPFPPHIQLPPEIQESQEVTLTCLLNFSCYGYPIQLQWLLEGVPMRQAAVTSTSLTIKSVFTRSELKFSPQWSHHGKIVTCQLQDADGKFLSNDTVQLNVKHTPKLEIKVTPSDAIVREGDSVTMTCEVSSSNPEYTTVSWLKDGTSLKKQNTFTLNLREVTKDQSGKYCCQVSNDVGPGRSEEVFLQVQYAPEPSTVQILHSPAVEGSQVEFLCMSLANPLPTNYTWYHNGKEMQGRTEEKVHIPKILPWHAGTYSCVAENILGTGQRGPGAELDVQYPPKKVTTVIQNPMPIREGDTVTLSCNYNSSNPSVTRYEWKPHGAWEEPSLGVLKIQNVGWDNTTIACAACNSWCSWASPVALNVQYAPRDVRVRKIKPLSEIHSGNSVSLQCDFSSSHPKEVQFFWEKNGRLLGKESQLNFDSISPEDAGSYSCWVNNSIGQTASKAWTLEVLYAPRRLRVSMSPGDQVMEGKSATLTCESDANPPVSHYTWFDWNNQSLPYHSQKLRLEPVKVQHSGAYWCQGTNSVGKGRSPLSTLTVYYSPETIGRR

B1: S002-NB151-14 VHH-Fc (Fc fusion)
chain: QVQLVESGGGLVQAGGSLRLSCTTSGGTLSRITMGWFRQAPGKEREFVAAIKWGGSSTPYSDSVKGRFTISRDNAKNTVYLQMDRLVPEDTAVYYCAGGLRGPYSDSVTSSVQYNYWGQGTQVTVSS[human IgG1 Fc with changes cut from this listing]
notes: VHH cloned into vector BI3.4-huIgG1 (hinge and human IgG1 Fc), made in HEK293E; also called 5002-NB151-14
B2: S002-NB150-152n VHH-Fc (Fc fusion)
chain: EVQVVESGGGLVQTGGSLRLSCAASGRPFDWLTVGWFRQAPGKEREFVAAISQSGGRIFYSDSVKGRFTISRDNAKNTAFLQMNSLKPEDTAVYSCAAQMRGYSRAAYPDEYDYWGQGTQVTVSS[human IgG1 Fc with changes cut from this listing]
notes: VHH cloned into vector BI3.4-huIgG1 (hinge and human IgG1 Fc), made in HEK293E
B3: S002-NB150-5 VHH-Fc (Fc fusion)
chain: QLQLVESGGGLVQAGGSLRLSCVGSGDRVSIALMGWFRQAPGKEREFVAAISPSGGRITYSDSVKGRFTISRDNAKNTVYLQMNSLKRDDTAVYVCAANFRGYLSSSRGSDYAYWGQGTQVTVSS[human IgG1 Fc with changes cut from this listing]
notes: VHH cloned into vector BI3.4-huIgG1 (hinge and human IgG1 Fc), made in HEK293E; also called 5002-NB150-5
B4: S002-NB150-2 VHH-Fc (Fc fusion)
chain: QVQLVESGGGLVQPGGSLRLSCAASGSWFNIAMGWFRQAPGKEREFVAGIRWSDSKTYYADSVKGRFTISGDNAKNTTYLQMNSLKPEDTAVYYCAAQRYYRGSYNRQTNYDHWGQGTQVTVSS[human IgG1 Fc with changes cut from this listing]
notes: VHH cloned into vector BI3.4-huIgG1 (hinge and human IgG1 Fc), made in HEK293E; also called 5002-NB150-2
B5: S002-NB150-57 VHH-Fc (Fc fusion)
chain: QVQLVESGGGLVQAGDSLRLSCAVTGRAYSRSDMGWFRQAPGKEREIVAVITFGGGTDYADSVKGRFTISSEDTKNTLYLQMNSLQPEDTAVYYCAAGFRGSRWSTAARRKEDDYAFWGQGTQVTVSS[human IgG1 Fc with changes cut from this listing]
notes: VHH cloned into vector BI3.4-huIgG1 (hinge and human IgG1 Fc), made in HEK293E; also called 5002-NB150-57
B6: S002-NB150-42 VHH-Fc (Fc fusion)
chain: QVQLVESGGGLVQAGDSLKLSCLASGITFSSYYMSWFRQAPGKEREFVAGVGRSGAPSHHADSVKGRFTISRDNAKSAVYLQMNSLQPEDTAVYFCAAKWMAASTTVADYWGQGTQVTVSS[human IgG1 Fc with changes cut from this listing]
notes: VHH cloned into vector BI3.4-huIgG1 (hinge and human IgG1 Fc), made in HEK293E; also called 5002-NB150-42
B7: S002-NB151-82 VHH-Fc (Fc fusion)
chain: EVQVVESGGGLVQAGDSLRLSCTTSGRTFYGDYIAWFRQAPGKEREFVAAIAVRGRGTFYGDSVKGRFTISRDNAENTLSLQMNSLKPEDTAVYYCAADAGSYASRGFPVRETGRYDYWGQGTQVTVSS[human IgG1 Fc with changes cut from this listing]
notes: VHH cloned into vector BI3.4-huIgG1 (hinge and human IgG1 Fc), made in HEK293E; also called 5002-NB151-82
B8: S002-NB151-64 VHH-Fc (Fc fusion)
chain: QVQLVESGGGLVQPGGSLTLSCAASGFDFSFYTMTWVRQAQGKGLEWVSTISTGGGGSNYADSVKGRFTISRDNAKKTLYLQMTSLKPEDTAVYYCASHRRGYMFVSSRKNEYDYWGRGTQVTVSS[human IgG1 Fc with changes cut from this listing]
notes: VHH cloned into vector BI3.4-huIgG1 (hinge and human IgG1 Fc), made in HEK293E; also called 5002-NB151-64
B9: S002-NB150-40 VHH-Fc (Fc fusion)
chain: QVQLVESGGGLVQDGGSLRLSCAASGLTFSFYNMGWFRQAPGKEREFVAAISQSGLSTHYADSMKGRFTISRDNAKNTVYLQMNSLNPVDTAAYYCAAGRRGYLASTTNDYEYWGQGTQVTVSS[human IgG1 Fc with changes cut from this listing]
notes: VHH cloned into vector BI3.4-huIgG1 (hinge and human IgG1 Fc), made in HEK293E; also called 5002-NB150-40

One assay has as its target T1, murine CD22-ECD-His. Nature of the assay: ELISA, coated mouse CD22, antibody 100 nM. Here is the method:
(§1) The plate was sealed with plastic film and incubated overnight at 4° C., the plate was washed 2 times with PBS the next day, and then a blocking solution [PBS+2% (w/w) BSA] was added for blocking at room temperature for 2 hours. […] After incubation at 37° C. for 2 hours, the plate was washed 3 times with PBS. HRP (horseradish peroxidase)-labeled secondary antibody (purchased from Sigma, catalog number: A0170) was added, and incubated at 37° C. for 2 hours, and the plate was washed 5 times with PBS. TMB substrate was added at 50 μl/well, and incubated at room temperature for 30 minutes, then a stop solution (1.0 N HCl) was added at 50 μl/well.
Background: An ELISA detects its analyte on a solid surface through an enzyme-linked reagent.
Take B1: the OD450 worked out at 0.15.
On the same count and under the same terms, to B2 belongs 0.1; to B3, 0.13.
Same read-out and setting: to B4 belongs 0.09.
The same measure, in the same setting: to B5 belongs 0.07; to B6, 0.07.
The molecule B7 showed an OD450 of 0.12.
B8 registered an OD450 of 0.1.
On the same count and under the same terms, to B9 belongs 0.06.

Another assay concerns the target T2, human CD22-ECD-His. Nature of the assay: ELISA, coated hCD22-ECD-His, antibody 10 nM. Here is the method: as §1
Consider B1, for which the OD450 was 1.71.
As to B2, the OD450 amounted to 2.82.
Still for that read-out and setting: to B3 belongs 2.04.
Same read-out and setting: to B4 belongs 1.89; to B5, 1.9.
On the same count and under the same terms, to B6 belongs 1.82; to B7, 1.68; to B8, 2.03.
In turn, B9 registered an OD450 of 1.95.

In the next assay the target is T3, cynomolgus monkey CD22 on peripheral blood B cells (cynomolgus monkey (Macaca fascicularis)).
T3 construct: whole, on cells; also called cynomolgus monkey B cells
Nature of the assay: FACS, cynomolgus PBMC, CD20+ B cells, antibody 1 nM. Here is the method:
After the cell suspension was centrifuged, the cells were resuspended in PBS containing 1% BSA, and then the cells were counted. […] After washing the cells three times, APC-labeled secondary antibody anti-human IgG Fc (catalog number: 409306, purchased from Biolegend) was added. After incubation at room temperature in the dark for 30 minutes, the cells were washed 5 times, gently resuspended with PBS containing 1% BSA, and detected and analyzed by FACS (FACS Canto™, purchased from BD Company).
(In general: Flow cytometry measures light scatter and fluorescence of single cells or particles in a stream.)
In the case of B1, the “Proportion of VHH-Fc antibody positive cells to B cells (%)” value was 84%.
On the same count and under the same terms, to B2 belongs 0%; to B3, 3%.
Regarding B4, the “Proportion of VHH-Fc antibody positive cells to B cells (%)” value was 73%.
Same read-out and setting: to B5 belongs 3%; to B6, 3%.
On the same count and under the same terms, to B7 belongs 3%; to B8, 3%.
Same read-out and setting: to B9 belongs 3%.

A further assay concerns the target T1, murine CD22-ECD-His. Nature of the assay: ELISA, coated mouse CD22, antibody 0.00001 nM. Here is the method: as §1
B1 gave an OD450 of 0.07.
The same measure, in the same setting: to B2 belongs 0.06; to B3, 0.05.
The same measure, in the same setting: to B4 belongs 0.05; to B5, 0.05; to B6, 0.05.
For the molecule B7, the OD450 was determined as 0.07.
Same read-out and setting: to B8 belongs 0.06; to B9, 0.05.

The target in another assay is T1, murine CD22-ECD-His. Nature of the assay: ELISA, coated mouse CD22, antibody 0.001 nM. Here is the method: as §1
For B1, the OD450 is 0.07.
Take B2: the OD450 stood at 0.06.
Still for that read-out and setting: to B3 belongs 0.05; to B4, 0.05.
Same read-out and setting: to B5 belongs 0.05; to B6, 0.05.
On the same count and under the same terms, to B7 belongs 0.06.
B8 returned an OD450 of 0.05.
Same read-out and setting: to B9 belongs 0.05.

The target in a further assay is T2, human CD22-ECD-His. Nature of the assay: ELISA, coated hCD22-ECD-His, antibody 0.00001 nM. Here is the method: as §1
Take B1: the OD450 turned out to be 0.25.
Same read-out and setting: to B2 belongs 0.1.
Still for that read-out and setting: to B3 belongs 0.15; to B4, 0.17; to B5, 0.08.
Still for that read-out and setting: to B6 belongs 0.09; to B7, 0.13.
For B8, the OD450 came to 0.11.
As for B9, the OD450 came to 0.11.

A further assay addresses T2, human CD22-ECD-His. Nature of the assay: ELISA, coated hCD22-ECD-His, antibody 0.001 nM. Here is the method: as §1
The molecule B1 showed an OD450 of 0.33.
The same measure, in the same setting: to B2 belongs 0.29; to B3, 0.46.
The same measure, in the same setting: to B4 belongs 0.44.
The same measure, in the same setting: to B5 belongs 0.3; to B6, 0.28; to B7, 0.23.
On to B8, for which the OD450 worked out at 0.35.
On the same count and under the same terms, to B9 belongs 0.25.
